Where “and” joins values, the source holds several entries; their conditions need not be identical. Equal entries are not always repeated. The whole screen tested about 390,000 compounds, of which about 4,000 (1%) were called active. The inconclusive results got no clear call from the source; some entries with a clear call stand among them for comparison. The call rests on the fitted dose curve; in most records, active means well fitted inhibition curve with a large enough effect; inconclusive means small, poorly fitted or top-dose-only effect; inactive means no such curve, though single readings can be large or run the other way. A potency beside an inconclusive call is a rough fit, not a confirmed value.
Target: Thioredoxin reductase 1, cytoplasmic (Rattus norvegicus) (UniProt O89049)
Assay: qHTS Assay for Inhibitors of Mammalian Selenoprotein Thioredoxin Reductase 1 (TrxR1): qHTS; further: nearly all actives have a fitted effect of over 65% in size
Settings: recombinant rTrxR1, NADPH fluorescence consumption, selenite substrate; series mostly up to 114 µM; activity change, negative = inhibition: at the top concentration
How it was run: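 Rat TrxR1 (90 nM in the dispensed reagent) was pre-reduced with 400 uM NADPH for 5 min at room temperature, then incubated with compound for 15 min. After 400 uM selenite was added, NADPH fluorescence (Ex 340/Em 450 nm) was followed for 8 min.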
On the % scale 0 is the no-effect control and ±100 the full control effect; potency means the concentration at half of the fitted maximal effect; tags describe the fitted curve by direction and shape.

Chain of UniProt O89049 (O89049 whole entry, looked up): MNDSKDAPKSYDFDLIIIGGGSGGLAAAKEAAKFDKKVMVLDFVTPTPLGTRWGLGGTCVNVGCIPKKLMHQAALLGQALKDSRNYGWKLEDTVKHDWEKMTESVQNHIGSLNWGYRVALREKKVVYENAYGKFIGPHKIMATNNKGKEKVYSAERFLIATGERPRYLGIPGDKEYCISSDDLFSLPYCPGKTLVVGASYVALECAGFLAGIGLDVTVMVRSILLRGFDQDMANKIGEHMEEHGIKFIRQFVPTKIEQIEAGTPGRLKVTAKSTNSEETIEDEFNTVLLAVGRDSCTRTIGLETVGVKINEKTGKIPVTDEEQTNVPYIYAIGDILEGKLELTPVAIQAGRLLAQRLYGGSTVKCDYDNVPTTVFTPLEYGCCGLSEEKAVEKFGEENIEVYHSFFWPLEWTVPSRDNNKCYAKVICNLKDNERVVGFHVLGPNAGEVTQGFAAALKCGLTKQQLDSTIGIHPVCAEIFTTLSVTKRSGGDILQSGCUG

Row | Compound | Potency | activity change, negative = inhibition
1 | Cc1cc(/C=C2/SC(=O)N(CC(=O)OC(C)C)C2=O)c(C)n1C | inconclusive: 39.8 µM [inhibitor, partial curve, poor fit] | 
2 | CCCOc1ccc(N2C(=O)CC(NCC#N)C2=O)cc1 (stereo not drawn) |  | inactive: 8.56% [at 57.1 µM]
3 | C/C(=N\NC(=O)c1nn(C)c(C)c1Br)c1cccc(NC(=O)c2ccc(F)cc2)c1 | inconclusive: 79.4 µM [inhibitor, single point] | 
4 | CCN(CC)c1ccc(NC(=O)/C=C\c2ccccc2Cl)cc1 |  | inactive: 2.45%
5 | Cc1c(O)c2c(c(C(=O)/C=C/c3ccccc3)c1O)OC(C)(C)C=C2 | inconclusive: 44.7 µM [inhibitor, partial curve, poor fit] | 
6 | COC(=O)c1cccc(-n2c(CCC(=O)O)ccc2-c2cccs2)c1 | inactive and inconclusive: 79.4 µM [inhibitor, single point] | 
7 | C=CCNC(=S)NC(=O)c1ccc(C)c(Br)c1 | inconclusive: 70.8 µM [inhibitor, partial curve] | 
8 | Cc1ccccc1Nc1nnc(SCC(=O)c2cc3ccccc3o2)s1 | inconclusive: 70.8 µM [inhibitor, single point] | 
9 | Cc1cn([C@H]2C[C@@H](N=[N+]=[N-])[C@@H](CO)O2)c(=O)[nH]c1=O | inconclusive: 0.189 µM [inhibitor, full curve, poor fit] | 
10 | Cc1nn(C(=O)c2cccc(Cl)c2)c(C)c1S(=O)(=O)N1CCOCC1 | inconclusive: 11.2 µM [inhibitor, partial curve] | 
11 | COC(=O)N/N=C/c1cc(Cl)c(OCc2ccccc2F)c(OC)c1 |  | inactive: 35.2% [at 57.1 µM]
12 | COc1ccc(CCNC(=O)C(=O)NCC(c2ccco2)S(=O)(=O)c2cccs2)cc1OC (stereo not drawn) | inconclusive: 17.8 µM [inhibitor, single point] | 
13 | COc1ccc(N=C2SC(CC(=O)Nc3ccccc3OC)C(=O)N2Cc2ccco2)cc1 (stereo not drawn) | inconclusive: 79.4 µM [inhibitor, partial curve] | 
14 | CCc1ccc(C(C)NC(=O)c2cc(C)oc2C)cc1 (stereo not drawn) | active: 20 µM | 
15 | NC(=S)N/N=C/c1ncc(C(F)(F)F)cc1Cl | inconclusive: 79.4 µM [inhibitor, partial curve, poor fit] | 
16 | O=C(Nc1sc2c(c1C(=O)NCc1cccnc1)CCCC2)c1cc(=O)c2ccccc2o1 | inconclusive: 89.1 µM [inhibitor, single point] | 
17 | COC(=O)NC(=C(Cl)Cl)S(=O)(=O)c1ccccc1 | inconclusive: 70.8 µM [inhibitor, single point] | 
18 | O=C(c1ccc([N+](=O)[O-])o1)N1CCN(c2nc3c(F)cc(F)cc3s2)CC1 | inconclusive: 22.4 µM [inhibitor, full curve] | 

Source: PubChem BioAssay AID588453 (National Center for Advancing Translational Sciences (NCATS), 2011)
